According to the supplement of paper PMC11417369:
± gives the standard deviation of the averaged measurements. This is one part of the list.

These sequences were tested on PfAP2-LT AP2 domain (GST-tagged) (assay: gcPBM binding intensity (ln(normalized median fluorescence intensity)); higher = stronger DNA binding).
Summary of the method: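 GST-tagged P. falciparum DNA-binding domains produced in E. coli were incubated for 1 h on an Agilent 4 × 180k array of primer-extended double-stranded 36-bp intergenic genomic probes with negative controls. Binding intensity is the highest Masliner-normalised natural-log median intensity across replicate spots of either probe orientation, with bound protein detected by Alexa488 anti-GST antibody at 488 nm.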

Point of comparison: “TTTGATGGTACACGTACACACCTTGCAAATATTTTT [CACACA_site4645]”, “gcPBM binding intensity (ln)” value 8.91 ± 0.36. Against it:
- AAAAAATATACATATACACACATATGTATATAGAAT [CACACA_site2170] — within error, 9.15 ± 0.46
- ATATGTTATATGTAATGTACTTTTGATGTATATATT [XGTACX_site8615] — within error, 8.89 ± 0.52
- AAAATATTATAAATTTGTACTTATAAATATTGTATA [XGTACX_site8165] — within error, 8.47 ± 0.44
- TAATAAATAAAATATGCACACAAATATAGGAAACAA [CACACA_site8820] — within error, 9.24 ± 0.34
- ATATATATAATATAATGTACGTATAATAATATGAGA [XGTACX_site2282] — within error, 8.98 ± 0.42
- CGTTATATATATAAAAGTACAAAAATTAAACATTCC [XGTACX_site4568] — within error, 8.82 ± 0.55
- ATATGTAAATAAATATGTACTCATTTATTATTTTAT [XGTACX_site8748] — within error, 8.68 ± 0.49
- ATATATACAAGTATTTTTTTTTCAAACATTATTTTT [CACACA_negctrl_site1808] — within error, 8.49 ± 0.65
- ATATGTATATTTTTTTGTACGTATTTATGTGTGTGT [XGTACX_site2093] — within error, 9.81 ± 0.57
- ATATTTTATGTGTTGGTGCACATCTTTATTTAAACT [GTGCAC_site9736] — within error, 9.14 ± 0.48
- TATTTGTAATATTATACACACATTATATATTACAAA [CACACA_site5804] — within error, 8.79 ± 0.36
- ATTTAAATAACGTATGTATATACATATATATATATA [TGCATGCA_negctrl_site207] — within error, 9.41 ± 0.27
- CGTAGCCACACTAACACACACAAATATACACAATCA [CACACA_site7379] — within error, 9.64 ± 0.4
- TATTTTGTATATAAATGTACAAGTATATATTTTTTC [XGTACX_site7855] — within error, 8.56 ± 0.45
- GATAAATGTATATATGCATGCACATATATTTATACA [TGCATGCA_site748] — within error, 9.01 ± 0.27
- TGCATTATTTACAAGGTGCGTTACAAATGTGTAACA [GTGCAC_site9442] — within error, 8.58 ± 0.35
- GCTTTAATCTGAAAGTGTACAGATAATATATTTATA [XGTACX_site2462] — within error, 8.48 ± 0.42
- TATGAATATTTGTATACATGCATATAGAAATCATAT [TGCATGCA_site533] — within error, 8.76 ± 0.38
- ATATATTATATATATATATATATATATTATTATTGT [TGCATGCA_negctrl_site286] — within error, 9.18 ± 0.26
- TATATATATATTTTTGCATGTAATTTTTATGAGGAC [TGCATGCA_site884] — within error, 8.82 ± 0.43
- TACTATAACGCACATACACACAAAAAAAAAAAAAAA [CACACA_site8073] — within error, 9.04 ± 0.45
- ATATGGTGATATAGGTGTACATTTTGATGCTTATTT [XGTACX_site4283] — within error, 9.12 ± 0.26
- TTATACATGAAATATTGTACACATATATATATATAT [XGTACX_site4378] — within error, 9.22 ± 0.38
- ATATATAGAATGTGTACACACATATGTATTTATATA [CACACA_site810] — within error, 9.24 ± 0.51
- ATTTTTTATGGACAAAAGACCTCTGATGTAAATATA [CACACA_negctrl_site1081] — within error, 8.38 ± 0.4
- TTTTTTTTTTTCTTAGTGCGCGTGAAAAATATAAAA — lower, 8.2 ± 0.35
- AATTAGATTATGCACACACACTTAAAAATAATAAAT [CACACA_site7015] — within error, 9.49 ± 0.4
- TTACTCAAACAAACAAAAAAAAAAAAAAAAAAAAAA [TGCATGCA_negctrl_site457] — within error, 8.28 ± 0.42
- TAAGTATAATATTGATGTACATATAATAACTTGTAT [XGTACX_site417] — within error, 8.87 ± 0.48
- AAAAATAAAAAAATGACACACATATATATATATATA [CACACA_site2307] — higher, 9.85 ± 0.11
- TATCTCTTATTTTATTGTACTTAACTATGCTATAAT [XGTACX_site4904] — within error, 8.89 ± 0.58
- AAGAGAAATTATAACATGTGAAATGTATTATATATA [TGCATGCA_negctrl_site254] — within error, 8.77 ± 0.47
- AAGGGAAAATTAAGGTTGCACTAAAAATATATCTTT [GTGCAC_site9608] — within error, 8.52 ± 0.49
- ATGAACATACAATATACACACATATATATTTATATT [CACACA_site4609] — within error, 9.16 ± 0.47
- TAGTTAACAAATAATGCACACAAATGGATAAAATTA [CACACA_site9240] — within error, 9.11 ± 0.35
- ATTCAAATTGTAGAAACACACAAAAACTTAACATAT [CACACA_site2617] — within error, 8.94 ± 0.44
- CATATGATATGTTATACACACACGTATATATGAATT [CACACA_site3446] — within error, 9.26 ± 0.34
- CTTTGTGTTAAAAGTAGTACACCAAAAATATGACTT [XGTACX_site622] — within error, 8.69 ± 0.42
- AGATACGATTATATGCGTTCAATATACCAAATAATT [TGCATGCA_negctrl_site501] — within error, 8.81 ± 0.42
- TTTTTCATCATATGTTGTACAATGTGTAGATATATT [XGTACX_site3195] — within error, 8.88 ± 0.38
- CACGCGCCCGGACACACACACACACCCATATATATA [CACACA_site5251] — higher, 10.2 ± 0.57
- GAATAAATATTAAATGTGCACTTGAATAGATGTAAA — within error, 8.86 ± 0.43
- AATATTTATGTGAAGACACACAACTGTTTATTATAT [CACACA_site3447] — within error, 9.23 ± 0.15
- ATCCTACTATGTTATACACACAATTACTTTTTTCTC [CACACA_site3712] — within error, 9.22 ± 0.45
- ATATGTAAAACTTCAAAAAAATATATTTTATGACGA [GTGCAC_negctrl_site324] — within error, 8.72 ± 0.42
- TTACAACAGAATGGTATTTTTTTATTTTAAAGAAAA [TGCATGCA_negctrl_site230] — within error, 8.13 ± 0.45
- AGATACTTTCCTCAAACACACAAAACTATACAACAA [CACACA_site1474] — within error, 8.97 ± 0.38
- ATATTCTTCTAAAGGCGTACATCTACATTTATGAAA [XGTACX_site2145] — within error, 8.59 ± 0.31
- ATTCAGTTCTATAATACACACATATATTGACATTAT [CACACA_site7309] — within error, 9.09 ± 0.33
- GTTAGCTCGTTCGGAGCACACACATATATATATATA [CACACA_site8595] — higher, 9.395 ± 0.0071
- AAAAATGAAAGGTGTACACATACAAACATAGAAAGA [CACACA_site5020] — within error, 9.38 ± 0.52
- AAAATTTATATAGGCACACAAATAAATTAATACATA [CACACA_site1418] — within error, 8.84 ± 0.53
- TTTTTTTTTTTTTGGTGTACTTTTTTTAGAACGCAA [XGTACX_site4207] — within error, 8.31 ± 0.45
- TTTTTTCTTTCTTTCAAACACACATTAATTTTATTC [CACACA_site2733] — within error, 8.71 ± 0.57
- ATTCTACACCCACATACACACATATATATATATATA [CACACA_site3426] — higher, 10 ± 0.085
- TGTTCAAATTTATTCGATCTTTATATTTAATAAAAC [CACACA_negctrl_site781] — within error, 8.32 ± 0.4
- ATATTAGAAATATGAATAGAAAGAATATATAAGTAT [CACACA_negctrl_site682] — within error, 8.9 ± 0.55
- AGTTCTTCGTACCAAAAAACGGCACGCATATGTATA [TGCATGCA_negctrl_site469] — within error, 8.7 ± 0.28
- TGTATTCATACATGCACACGTACATATTTAAATATA [CACACA_site3926] — within error, 8.84 ± 0.3
- AATTATATTCTATTCACACATATTCCAACCTCTTTT [CACACA_site4670] — within error, 8.9 ± 0.59
- TGAAAGAACCTGATTACACACATAAATTATATATAT [CACACA_site26] — within error, 8.98 ± 0.47
- AAAAGATAATTATGCACACACACACCCAGACACAAC [CACACA_site5428] — higher, 10.34 ± 0.021
- TGTATGTTGTAAAATTGTACATATATATTATATTTA [XGTACX_site4883] — within error, 8.64 ± 0.4
- ATGAATATAATAAAGAAACACACGTATACATAATGA [CACACA_site1355] — within error, 9.11 ± 0.45
- ATATATAAAATATACACACATACTGTTCATTTAAAG [CACACA_site4169] — within error, 8.83 ± 0.38
- ATTTATATATCGCCCACACACATGTGATTATTTATA [CACACA_site6905] — within error, 9.3 ± 0.35
- TATTTCAAAAAAAAAAAAAATAAAAAACAACAACAA [CACACA_negctrl_site893] — within error, 8.55 ± 0.39
- AAAAAAAATTATATATGTACTTATTAATCCTTATAT [XGTACX_site1389] — within error, 8.53 ± 0.52
- TACTACTATCTATATTGTACAAAAGGTGCCTACAAA [XGTACX_site4267] — within error, 8.68 ± 0.35
- TACAAGTTTTTAAAGTGTACCAAAAAAAAAGAATAA [XGTACX_site979] — within error, 8.71 ± 0.49
- TCTATTCAAAATAAAAGTACTAGCATGTGAATTGTT [XGTACX_site5530] — within error, 8.63 ± 0.38
- TTCATTTATTTACTTACACACTTTATATATGTGGTT [CACACA_site4901] — within error, 9.16 ± 0.49
- AGTATATACACGTGCGTGCACAGATATTCTTTTTTT [GTGCAC_site9398] — within error, 8.87 ± 0.36
- GATATAATTATATTATGGTGTTTTTGATAGATATTT [GTGCAC_negctrl_site313] — within error, 8.71 ± 0.39
- ATCAAACCATAAAAGAGTACAAAAGGATGATATTTT [XGTACX_site8883] — within error, 8.97 ± 0.4
- TATTTTAAAGAGAAAACATGCATTATATAGAACATT [TGCATGCA_site328] — within error, 8.49 ± 0.38
- ATAAAATATAGATGCACACACATATAGATTTCATAC [CACACA_site7636] — within error, 9.29 ± 0.37
- TGTATATTTTTTATTACACACTTTTTACTTTTTAGA [CACACA_site3069] — within error, 8.77 ± 0.55
- TTTTTTAATTGTGATACGTATATTATTTAATGATAA [GTGCAC_negctrl_site704] — within error, 8.45 ± 0.3
- AGAGAGATGACAAAAAGATGAATAACGTTAAGGGAT [XGTACX_negctrl_site120] — within error, 9.25 ± 0.49
- TATTTATTGTGATACTTATATTATTTTATGATTAAA [CACACA_negctrl_site901] — within error, 8.48 ± 0.41
- ATGGAAATATATACATGTACATAAATATATATATAT [XGTACX_site8391] — within error, 9.18 ± 0.37
- ATGTTTTGCATATATTATATATTTATTTATTTTTTT [CACACA_negctrl_site729] — within error, 8.77 ± 0.51
- AGTGGACTTTTTTTTTTTTTTTTTTTTTTTTTATTA [CACACA_negctrl_site547] — within error, 8.54 ± 0.57
- AGTAGTCTGGAGAAGAGTACATAGTATCTGGTAACC [XGTACX_site2043] — the same, 8.91 ± 0.46
- GTATGGCGTATCATATGTACTAAAAAAAAATAAAAA [XGTACX_site5101] — within error, 8.66 ± 0.55
